Laboratory results reported in PubChem BioAssay AID686979 (National Center for Advancing Translational Sciences (NCATS), 2013).
Among all 420,000 compounds or so, about 50,000 (12%) were called active. The inconclusive results got no clear call from the source; some entries with a clear call stand among them for comparison. The call rests on the fitted dose curve; in most records, active means well fitted inhibition curve with a large enough effect; inconclusive means small, poorly fitted or top-dose-only effect; inactive means flat fitted curve, though single readings scatter. No potency is given beside an inconclusive call; the fits are too rough.

test: qHTS for Inhibitors of human tyrosyl-DNA phosphodiesterase 1 (TDP1): qHTS in cells in presence of CPT; settings: chicken DT40 Tdp1-/-;hTDP1 cells + 20 nM CPT, ATP luminescence, 48 h; series mostly up to 46.2 µM; further: nearly all actives have a fitted effect of over 55% in size
How it was run: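 Cell growth measured by CellTiter-Glo luminescence after a minimum 48 h, 37 C compound exposure with 20 nM CPT in Tdp1-knockout DT40 cells stably expressing hTDP1, seeded 400/well; qHTS titration format.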
Potency means the concentration at half of the fitted maximal effect; tags describe the fitted curve by direction and shape.

SMILES	Potency
CCc1nnc2n1N(C(C)=O)C(c1ccc(C(C)(C)C)cc1)=C(C(C)=O)S2	active: 8.2 µM
O=C(COC(=O)CC1c2ccccc2CCN1S(=O)(=O)c1ccccc1)Nc1ccccc1 (stereo unspecified)	inconclusive [inhibitor, single point]
COC(=O)c1ccc(NC(=O)C2CCN(S(=O)(=O)c3ccc4c(c3)CCCN4C(C)=O)CC2)cc1	inconclusive [inhibitor, single point]
C[C@H](CO)N1C[C@H](C)[C@@H](CN(C)Cc2ccccc2)Oc2c(NC(=O)C3CCCCC3)cccc2C1=O	inconclusive [inhibitor, single point]
CCOC(=O)c1ccc(N=C2SC(C(=O)Nc3ccc(C(=O)O)cc3)CC(=O)N2Cc2cccs2)cc1 (stereo unspecified)	inconclusive [inhibitor, partial curve]
O=S(=O)(c1cccc(Cl)c1)c1nnn2c1nc(NC1CCCC1)c1sccc12	inconclusive [inhibitor, single point]
Cc1cccc(C(=O)NC(NCc2ccco2)C(Cl)(Cl)Cl)c1 (stereo unspecified)	inconclusive [inhibitor, single point]
O=C(Nc1nc2ccccc2[nH]1)c1ccc(Cl)c([N+](=O)[O-])c1	inconclusive [inhibitor, single point]
C(=C\c1ccccc1)/CN1CCN(C(c2ccccc2)c2nnnn2C2CCCCC2)CC1 (stereo unspecified)	inconclusive [inhibitor, single point]
COc1ccc(-c2csc(NCCn3c(C)nc4cc(C(F)(F)F)ccc43)n2)cc1	inconclusive [inhibitor, single point]
CCCc1nnc(NC(=O)CCC(=O)N2CCN(CCOc3ccc(C)cc3)CC2)s1	inconclusive [inhibitor, single point]
COc1ccc(CC(=O)Nc2sc3c(c2C(=O)Nc2ccc(C)cc2)CCCCC3)cc1	inconclusive [inhibitor, single point]
O=C(Nc1cccc(S(=O)(=O)N2CCCCCC2)c1)c1ccc2c(c1)OCO2	inconclusive [inhibitor, single point]
Cc1cc2c(c(/C=C/C(=O)c3ccccc3)c1)OC1(C=C2)Oc2ccccc2C(=O)N1C (stereo unspecified)	inconclusive [inhibitor, single point]
CCc1cccc(C)c1Nc1c(-c2cccc(O)c2)nc2sccn12	active: 14.6 µM
COc1ccc(-c2nc3ccccc3c(C(=O)Nc3ccc(S(=O)(=O)Nc4cc(C)on4)cc3)c2C)cc1	inconclusive [inhibitor, single point]
